Assay results taken from PMC4336329 (PLoS ONE, 2015).
Hit rate of the full screen: of about 310,000 compounds, about 14,000 (4.5%) showed an effect of 50% or more. Effects have a minus sign here. This is one part of the list.

What follows are compounds tested against human ether-à-go-go-related gene (hERG) potassium channel (human, UniProt Q12809) (assay: primary screen, population patch clamp on CHO cells stably expressing hERG).
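Also: peak tail current of the secondary pulse compared with the same well before compound.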

Sequence of human ether-à-go-go-related gene (hERG) potassium channel (Q12809 whole entry, looked up): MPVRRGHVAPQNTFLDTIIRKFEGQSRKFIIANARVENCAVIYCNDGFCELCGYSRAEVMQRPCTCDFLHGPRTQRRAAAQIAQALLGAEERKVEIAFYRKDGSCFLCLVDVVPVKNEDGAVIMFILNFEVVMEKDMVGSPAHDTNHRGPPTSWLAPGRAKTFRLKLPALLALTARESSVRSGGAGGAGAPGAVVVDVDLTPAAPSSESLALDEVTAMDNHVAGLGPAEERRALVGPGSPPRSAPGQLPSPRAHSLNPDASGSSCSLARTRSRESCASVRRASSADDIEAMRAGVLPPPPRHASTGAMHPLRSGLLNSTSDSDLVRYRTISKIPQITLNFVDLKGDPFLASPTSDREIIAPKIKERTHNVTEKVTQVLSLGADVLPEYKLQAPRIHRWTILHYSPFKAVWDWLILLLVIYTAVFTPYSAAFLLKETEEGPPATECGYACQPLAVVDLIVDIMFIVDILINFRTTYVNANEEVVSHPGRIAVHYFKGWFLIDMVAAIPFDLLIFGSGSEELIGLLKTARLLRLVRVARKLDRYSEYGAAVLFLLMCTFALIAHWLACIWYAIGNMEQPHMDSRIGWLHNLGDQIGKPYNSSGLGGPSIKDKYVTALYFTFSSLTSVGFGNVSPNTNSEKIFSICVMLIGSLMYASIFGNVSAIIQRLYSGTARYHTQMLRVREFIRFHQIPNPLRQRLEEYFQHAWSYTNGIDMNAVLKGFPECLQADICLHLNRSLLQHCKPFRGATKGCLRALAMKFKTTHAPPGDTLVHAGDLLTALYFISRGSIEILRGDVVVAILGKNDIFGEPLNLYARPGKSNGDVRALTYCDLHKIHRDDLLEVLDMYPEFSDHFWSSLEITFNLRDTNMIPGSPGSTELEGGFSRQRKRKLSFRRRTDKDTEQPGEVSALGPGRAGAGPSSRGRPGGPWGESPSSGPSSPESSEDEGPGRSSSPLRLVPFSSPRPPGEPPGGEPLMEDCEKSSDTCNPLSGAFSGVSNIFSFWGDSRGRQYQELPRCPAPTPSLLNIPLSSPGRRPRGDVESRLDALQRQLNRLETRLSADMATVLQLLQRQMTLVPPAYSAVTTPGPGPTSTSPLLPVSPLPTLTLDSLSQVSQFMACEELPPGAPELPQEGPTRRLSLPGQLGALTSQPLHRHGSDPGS

Point of comparison: `Cc1nc2ccccc2c2nc3ccccc3n12`, “hERG current change (%, negative = inhibition) at 10uM” value -8.2%. Against it:
- CC(C)(C)S(=O)(=O)c1c(C(=O)O)cccc1C(=O)O — higher, 4.59%
- CC(C)Oc1nc(-c2ccccc2O)nc2ccccc12 — higher, 5.18%
- Cc1nc2ccc(NC(=O)N(C)c3ccccc3)cc2s1 — lower, -11.3%
- O=C(CN(C(=O)CCC(=O)Nc1ccccn1)c1ccccc1F)NCc1ccc2c(c1)OCO2 — higher, 10%
- COc1ccc(C(=O)NCCS(=O)(=O)NCc2cccs2)cc1 — lower, -29.5%
- CCCc1ccc(S(=O)(=O)N(C)S(=O)(=O)c2ccc(F)cc2)cc1 — higher, 8.38%
- CC(C)(C)OC(=O)N1CCC(NC(=O)c2[nH]cnc2C(=O)Nc2ccon2)CC1 — lower, -33.2%
- c1cncc(CSc2ccc(-c3ccc4c(c3)OCO4)nn2)c1 — lower, -8.44%
- CCOc1ccc2[nH]c(=O)c(C(c3nnnn3Cc3ccco3)N3CCCC(C)C3)cc2c1 (stereo not drawn) — higher, -4.69%
- COc1ccc(C2C([N+](=O)[O-])=C(N)Oc3c2c(=O)oc2ccccc32)cc1 (stereo not drawn) — higher, 5.61%
- CN1CCN(c2ccc(S(=O)(=O)N3CCCCC3)cc2NC(=O)CCc2ccccc2)CC1 — lower, -53.3%
- COc1ccc(Cc2nnc(N/N=C(\C)c3ccccc3)[nH]c2=O)cc1OC — higher, 17.8%
- CCOC(=O)c1sc(NC(=O)Nc2ccccc2Cl)cc1C — higher, 0.573%
- CCOc1ccc(NC(=O)CSC(N)=O)cc1 — higher, 17%
- COCCn1c(SCC(=O)N2CCOCC2)nc2c(c1=O)SCC2 — lower, -14.1%
- CN(Cc1c(F)cccc1Cl)C(=O)c1ccc2ccccc2n1 — lower, -11.6%
- COc1ccc(/C=C2\CCc3ccccc3C2=O)cc1Cn1cccn1 — higher, 2.14%
- COCCCNC(=O)c1ccc(Cn2c(=O)c3ccccc3n(Cc3cc(C)ccc3C)c2=O)cc1 — higher, -7.17%
- COC(=O)Nc1c(C)nn(Cc2ccccc2C)c1C — higher, 2.75%
- Cn1c(C(=O)N2CCC(C(=O)NCc3ccccc3)CC2)cc2sccc21 — higher, 6.22%
- COc1ccccc1Oc1coc2cc(OC(=O)N3CCOCC3)ccc2c1=O — lower, -56.4%
- CCCN1CCc2c(sc(NC(=O)c3ccc(S(=O)(=O)N(C)c4ccccc4)cc3)c2C(=O)NC)C1 — lower, -29%
- Cn1cc(S(=O)(=O)N2CCCC(C(=O)O)C2)cn1 (stereo not drawn) — higher, 10.5%
- Cc1ccc(-c2nc(NC(=O)c3ccc(S(=O)(=O)N(CCC#N)CCC#N)cc3)sc2-c2ccccc2)cc1 — higher, 2.57%
- Cn1ncc2c(NNC(=O)C3CCCCC3)ncnc21 — higher, 24.5%
- COc1cc2cc(CCCOC(=O)c3ccc(F)cc3)oc(=O)c2cc1OC — lower, -29.5%
- Cc1cccn2cc(CCNC(=O)Cc3cccs3)nc12 — lower, -12.4%
- O=C(Nc1ccccc1)Nc1ccc2snnc2c1 — higher, 12.2%
- O=C(O)c1ccc(-n2c(/C=C/c3ccccc3)nc3ccccc3c2=O)cc1 — higher, 12.5%
- C/C(=N\NC(=S)NC1CCCCC1)c1ccc(OC(F)F)cc1OC(F)F — higher, 6.5%
- O=C(C1=C(O)C(=O)N(c2ncccn2)C1c1ccc(Cl)cc1)c1ccco1 (stereo not drawn) — higher, 7.37%
- Cc1ccc2nc(N(CCCN(C)C)C(=O)CN3C(=O)c4ccccc4C3=O)sc2c1.Cl — lower, -47.5%
- Cc1ncoc1C(=O)Nc1ccccc1C(N)=O — higher, 6.3%
- CCOC(=O)CCNC(=O)N1CCCC(C(=O)c2ccc3c(c2)OCO3)C1 (stereo not drawn) — higher, 2.31%
- O=C(NC1CCOCC1)C1CCC(=O)N(CCc2cccc(F)c2)C1 (stereo not drawn) — higher, 10.2%
- CN(C(=O)CCN1CCCO1)C1CCCN(Cc2ccccc2F)C1 (stereo not drawn) — higher, 19.2%
- COc1ccc(N2CCN(C(=O)CN(C)S(=O)(=O)c3cnc[nH]3)CC2)cc1 — higher, 8.89%
- CN(C(=O)c1ccc2c(Cl)c3c(nc2c1)CCC3)c1ccccc1 — lower, -18.1%
- COc1ccc(OC)c(-c2nnc(SCC(=O)N3CCOCC3)o2)c1 — higher, 8.27%
- COC(=O)Nc1ccc(S(=O)(=O)NCCO)cc1 — lower, -16.4%
- O=C(NCCNC(=O)c1cccc(O)c1)c1cccc(O)c1 — higher, 18%
- CC1CC(=O)N(CC(=O)Nc2ccc(F)cc2)c2ccccc2S1(=O)=O (stereo not drawn) — higher, 4%
- Cc1ccc(C)c2[nH]c(=O)c(CCNC(=O)c3ccc(S(=O)(=O)N4CCOCC4)cc3)cc12 — lower, -27.5%
- Cc1c(CCC(C)C)c(=O)n2c([nH]c3ccccc32)c1C#N — higher, 26.3%
- COCCNC(=O)[C@H]1C[C@@H]1[C@H](NP(=O)(c1ccccc1)c1ccccc1)c1ccccc1 — higher, -4.49%
- Nc1ccc(S(=O)(=O)c2ccccc2)nc1 — lower, -13%
- O=C(NCC1CCCO1)C1CCN(C2CCN(CCCC3CCCC3)CC2)CC1 (stereo not drawn) — lower, -58%
- O=C(Nc1cccc(NC(=O)c2ccccc2)n1)c1ccccc1 — lower, -30.4%
- COc1ccc(CCNC(=O)c2cc3sc(Cl)cc3n2C)cc1OC — higher, -5.93%
- CCCC/C(=N/O)c1c(C)[nH]c2ccccc12 — higher, -2.13%
- Cc1c(C(=O)O/N=C(\N)c2ccccn2)cccc1[N+](=O)[O-] — higher, -4.89%
- Cc1cc(C)c(C)c(S(=O)(=O)N2CCC(C(=O)OCC(=O)N3c4ccccc4NC(=O)C3(C)C)CC2)c1C — higher, -1.58%
- COc1cc(NC(=O)C2CC2)c(OC)cc1NC(=O)CCC(=O)NC1CCN(Cc2ccccc2)CC1 — higher, 2.82%
- Fc1ccc(CNc2ncnc3cc(Cl)ccc23)cc1 — higher, 19.6%
- CCN(C(=O)COC(=O)c1cccc(S(=O)(=O)N2CCOCC2)c1)C1CCS(=O)(=O)C1 (stereo not drawn) — higher, -6.01%
- CC(C)Cc1nnc(NC(=O)CCC(=O)N2CCN(c3ccc([N+](=O)[O-])cc3)CC2)s1 — lower, -72.3%
- S=c1nc(-c2cccc(Cl)c2)[nH][nH]1 — higher, 12.2%
- CSc1nc2ccccc2n1CC(=O)Nc1c(C)cccc1C — higher, -1.99%
- Cc1cc(Cl)c2oc(C(=O)N3CCN(c4cccc(C)n4)CC3)c(C)c2c1 — higher, 16.3%
- O=C(Nc1ccncc1)c1cc(-c2ccccn2)nc2ccc(Br)cc12 — higher, 19.7%
- CCOc1ccc(-c2nnc(N(CC)C(=O)C3CCC3)s2)cc1 — higher, -6.07%
- O=C(c1ccc([N+](=O)[O-])cc1)N(C1=NCCCCS1)c1ccccc1 — higher, -5.07%
- COc1ccc(C(=O)Nc2ccc(C)cc2C(=O)c2ccccc2)cc1 — lower, -9.17%
- O=C(Nc1ccc(N2CCOCC2)cc1)C1(c2ccc(Cl)cc2)CCC1 — lower, -11.8%
- O=C(COc1ccccc1)N/N=C/c1ccc(O[C@@H]2O[C@H](CO)[C@@H](O)[C@H](O)[C@H]2O)cc1 — higher, 5.52%
- O=C(Nc1nnc(S(=O)(=O)N2CCCCCC2)s1)c1ccccc1Br — higher, 12.7%
- O=C1CC(N2CCN(Cc3ccc4c(c3)OCO4)CC2)C(=O)N1c1cccc(Cl)c1 (stereo not drawn) — lower, -28.6%
- Cc1ccccc1OCCn1cnc2c(N)ncnc21 — higher, 5.72%
- Cc1ccc(N(CC(=O)NC(C)C)C(=O)CCC(=O)Nc2nccs2)cc1 — higher, 16%
- COc1ccc(-c2noc(CCCC(=O)Nc3ccc(C(N)=O)cc3)n2)cc1 — higher, 21.8%
- CCC(C)C(=O)Nc1c2c(nc3c1CCC3)CCCC2 (stereo not drawn) — lower, -11.7%
- Cc1csc(NC(=O)CSc2nnc(-c3cc(C)on3)o2)n1 — higher, 14.6%
- Cc1nn2c(-c3ccncc3)nnc2c2ccccc12 — lower, -22.8%
- CC(C)Cn1c(N)c(C(=O)CSc2ccccc2)c(=O)n(C)c1=O — higher, 10.7%
- CN1Cc2c(c(C#N)c(N)n(C)c2=S)CC1(C)C — higher, -3.32%
- CC(C)(C)NC(=O)C(c1ccccn1)N(C(=O)c1ccc2c(c1)OCCO2)C1CCCC1 (stereo not drawn) — higher, -3.07%
- Cc1nc2ccccc2c2oc(C(=O)Nc3ccc4c(c3)OCCO4)cc12 — higher, 7.41%
- Cc1cc(OCCOc2cccc3cccnc23)cc(C)c1Cl — higher, -3.87%
- CCOC(=O)c1ccc(NC(=O)C2(c3ccc(OC)cc3)CCOCC2)cc1 — higher, -1.79%
- CC(=O)c1ccc(N2CCN(CN3C(=O)CC4(CCCC4)C3=O)CC2)c(F)c1 — higher, 6.7%
- Cn1c(N)c(C#N)c(C#N)c1-c1ccccc1 — higher, -3.22%
- CCOC(=O)c1cccc(NC(=O)/C=C/c2cccc([N+](=O)[O-])c2)c1 — lower, -15.4%
- O=C(Nc1ccccc1)OC(CN1CCCCC1)C(F)(F)F (stereo not drawn) — higher, 6.17%
- COc1ccccc1N=Cc1c(C)[nH]n(-c2ccc(C)cc2C)c1=O — higher, 6.84%
- C/C=C(\C)C(=O)OC1C(C)=C2C(C1OC(=O)CCCCC)C(C)(OC(C)=O)CC(OC(=O)CCC)C1(O)C2OC(=O)C1(C)O (stereo not drawn) — higher, -6.49%
- S=c1[nH]ncn1/N=C/c1ccccn1 — higher, 11.7%
